Results on ten variants are retold here after the supplement of paper PMC12217912.

B1: TEV protease; numbered along this chain (parent)
chain: MGESLFKGPRDYNPISSSICHLTNESDGHTTSLYGIGFGPFIITNKHLFRRNNGTLVVQSLHGVFKVKDTTTLQQHLVDGRDMIIIRMPKDFPPFPQKLKFREPQREERICLVTTNFQTKSMSSMVSDTSCTFPSGDGIFWKHWIQTKDGQCGSPLVSTRDGFIVGIHSASNFTNTNNYFTSVPKNFMELLTNQEAQQWVSGWRLNADSVLWGGHKVFMVKPEEPFQPVKEATQL

This is one part of the list. The full chains were built here from the parent and the listed change. Inactive controls read about 0.05.
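Note: Bxb1 expression induced with 0.2% (w/v) L-rhamnose at OD600 near 0.5, cultures sampled hourly, flipped fraction per protease–substrate barcode pair counted by paired-end Illumina sequencing.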

This assay covers variants of B1. Put plainly: raw area under fraction-flipped curve 0-4 h after induction (AUC4h, not background-subtracted), DNA-recorder readout of cleavage of the substrate (dimensionless); higher = more cleavage of the substrate by the protease variant. The following applies: temperature: 34 °C; time window: 0-4 h after rhamnose induction.
On to MGESLFKGPRDYNPISSSICHLTNESDGHTTSLYGIGFGPFIITNKHLFRRNNGTLVVQSLHGVFKVKDTTTLQQHLVDGRDMIIIRMPKDFPPFPQKLKFREPQREERICLVTTNFQTKSMSSMVSDTSCTFPSGDCIFWKHWIQTKDGQCGSPLVSTRDGFIVGIHSASNFTNTNNYFTSVPKNFMELLTNQEAQQWVSGWRLNADSVLWGGHKVFMVKPEEPFQPVKEATQL [G138C], for which the “area with substrate EKLYFQS” value was determined as 0.0888, the “area with substrate ESLYFQS” value turned out to be 0.07, the “area with substrate ETLYFQS” value came to 0.085 and the “area with substrate EWLYFQS” value is 0.0712.
As for MGESLFKGPRDYNPISSSICHLTNESDGHTTSLYGIGFGPFIITNKHLFRRNNGTLVVQSLHGVFKVKDTMTLQQHLVDGRDMIIIRMPKDFPPFPQKLKFREPQREERICLVTTNFQTKSMSSMVSDTSCTFPSGDGIFWKHWIQTKDGQCGSPLVSTRDGFIVGIHSASNFTNTNNYFTSVPKNFMELLTNQEAQQWVSGWRLNADSVLWGGHKVFMVKPEEPFQPVKEATQL [T71M], the “area with substrate EKLYFQS” value is 0.0733, the “area with substrate EMLYFQS” value turned out to be 0.103, the “area with substrate EQLYFQS” value turned out to be 0.103 and the “area with substrate ESLYFQS” value stood at 0.0927.
For the variant MGESLFKGPRDYNPISSSICHLTNESDGHTTSLYGIGFGPFIITNKHLFRRNNGTLVVQSLHGVSKVKDTTTLQQHLVDGRDMIIIRMPKDFPPFPQKLKFREPQREERICLVTTNFQTKSMSSMVSDTSCTFPSGDGIFWKHWIQTKDGQCGSPLVSTRDGFIVGIHSASNFTNTNNYFTSVPKNFMELLTNQEAQQWVSGWRLNADSVLWGGHKVFMVKPEEPFQPVKEATQL [F65S], the “area with substrate EILYFQS” value was 0.116, the “area with substrate EKLYFQS” value was determined as 0.0881, the “area with substrate EMLYFQS” value stood at 0.0654 and the “area with substrate EQLYFQS” value came out at 0.0886. The “area with substrate ESLYFQS” value was 0.0965, the “area with substrate ETLYFQS” value was determined as 0.113, the “area with substrate EWLYFQS” value came to 0.0774 and the “area with substrate EYLYFQS” value was determined as 0.0962.
On to MGESLFKGPRDYNPISSSICHLTNESDGHTTSLYGIGFGPFIITNKHLFRRNNGTLVVQSLHGVFKVKDTTTLQQHLVDGRDMIIIRMPKDFPPFPQKLKFREPQREERICLVTTNFQTKSMSSMVSDTSCTFPSGDGIFWKHWIQTKDGQCGSPLVSTRDGFIVGIHSASNFTNTNNYFTSVPKNFMELLTNQEAQQWVSGWRLNADSVLWGGHKVKMVKPEEPFQPVKEATQL [F218K], for which the “area with substrate EKLYFQS” value was 0.0692, the “area with substrate ESLYFQS” value came to 0.0643, the “area with substrate EVLYFQS” value was 0.0795 and the “area with substrate EWLYFQS” value came to 0.0803.
For MGESLFKGPRDYNPISSSICHLTNESDGHTTSLYGIGFGPFIITNKHLFRRNNGTLVVQSLHGVFKVKDTTTLQQHLVDGRDMIIIRMPKDFPPFPQKLKFRFPQREERICLVTTNFQTKSMSSMVSDTSCTFPSGDGIFWKHWIQTKDGQCGSPLVSTRDGFIVGIHSASNFTNTNNYFTSVPKNFMELLTNQEAQQWVSGWRLNADSVLWGGHKVFMVKPEEPFQPVKEATQL [E103F], the “area with substrate EHLYFQS” value is 0.0893, the “area with substrate EILYFQS” value came to 0.132, the “area with substrate EKLYFQS” value was determined as 0.118 and the “area with substrate EPLYFQS” value came to 0.0667. The “area with substrate ESLYFQS” value is 0.105 and the “area with substrate EVLYFQS” value came out at 0.0742.
For MGESLFKGPRDYNPISSSICHLTNESDGHTTSLYGIGFGPFIITNKHLFRRNNGTLVVQSLHGVFKVKDTTTLQQHLVDGRDMIIIRMPKDFPPFPQKLKFREPQREERICLVTTNFQTKSMSSMVSDESCTFPSGDGIFWKHWIQTKDGQCGSPLVSTRDGFIVGIHSASNFTNTNNYFTSVPKNFMELLTNQEAQQWVSGWRLNADSVLWGGHKVFMVKPEEPFQPVKEATQL [T129E], the “area with substrate EILYFQS” value came to 0.0968, the “area with substrate EMLYFQS” value amounted to 0.0988, the “area with substrate EQLYFQS” value came to 0.102 and the “area with substrate ESLYFQS” value amounted to 0.0873. Moreover, the “area with substrate ETLYFQS” value was 0.102, the “area with substrate EVLYFQS” value came out at 0.0912 and the “area with substrate EYLYFQS” value is 0.0932.
Take MGESLFKGPRDYNPISSSICHLTNESDGHTTSLYGIGFGPFIITNKHLFRRNNGTLVVQSLHGVFKVKDTTTLQQHLVDGRDMIIIRMPKDFYPFPQKLKFREPQREERICLVTTNFQTKSMSSMVSDTSCTFPSGDGIFWKHWIQTKDGQCGSPLVSTRDGFIVGIHSASNFTNTNNYFTSVPKNFMELLTNQEAQQWVSGWRLNADSVLWGGHKVFMVKPEEPFQPVKEATQL [P93Y]: the “area with substrate EILYFQS” value came to 0.0778, the “area with substrate ELLYFQS” value worked out at 0.0837, the “area with substrate EMLYFQS” value turned out to be 0.107 and the “area with substrate EQLYFQS” value was determined as 0.0941.
On to MGESLFKGPRDYNPISSSICHLTNESDGHTTSLYGIGFGPFIITNKHLFRRNNGTLVVQSLHGVFKVKDTTTLQQHLVDGRDMIIIRMPKDFPPFPQKLKFREPQREERICLVTTRFQTKSMSSMVSDTSCTFPSGDGIFWKHWIQTKDGQCGSPLVSTRDGFIVGIHSASNFTNTNNYFTSVPKNFMELLTNQEAQQWVSGWRLNADSVLWGGHKVFMVKPEEPFQPVKEATQL [N116R], for which the “area with substrate EKLYFQS” value stood at 0.117, the “area with substrate ELLYFQS” value is 0.0916, the “area with substrate EMLYFQS” value turned out to be 0.129 and the “area with substrate EQLYFQS” value is 0.114. The “area with substrate ESLYFQS” value was determined as 0.11, the “area with substrate ETLYFQS” value turned out to be 0.146 and the “area with substrate EWLYFQS” value amounted to 0.0777.
Consider MGESLFKGPRDYNPISSSICHLTNESDGHTTSLYGIGFGPFIITNKHLFRRNNGTLVVQSLHGVFKVKDTTTLQQHLVDGRDMIIIRMPKDFPPFPQKLKFREPQREERICLVTTNFQTKSMSSMVSDTSCTFPSGDGIFWKHWIQTKDGQCGSPLVSTRDGFIVGIHSASNFTNTNNYFTSVPKIFMELLTNQEAQQWVSGWRLNADSVLWGGHKVFMVKPEEPFQPVKEATQL [N186I], for which the “area with substrate EILYFQS” value was found to be 0.0735, the “area with substrate EKLYFQS” value is 0.0804 and the “area with substrate EMLYFQS” value was found to be 0.0812.
As to MGESLFKGPRDYNPISSSICHLTNESDGHTTSLYGIGFGPFIITNKHLFRRNNGTLVVQSLHGVFKVKDTTTLQQHLVDGRDMIIIRMPKDFPPFPQKLKFREPQREERICLVTTNFQTKSMSSMVSDTSCTFPSGDGIFWKHWIQTKDGQCGSPLVSTRDGFIVGIHSASNFTNTNNYFTSVPKCFMELLTNQEAQQWVSGWRLNADSVLWGGHKVFMVKPEEPFQPVKEATQL [N186C], the “area with substrate EHLYFQS” value is 0.11, the “area with substrate EKLYFQS” value is 0.121, the “area with substrate EPLYFQS” value amounted to 0.136 and the “area with substrate ERLYFQS” value was 0.104. The “area with substrate ESLYFQS” value came to 0.101.
